From PubChem BioAssay AID1963576 (National Center for Advancing Translational Sciences (NCATS), 2024)
Among all 46,000 compounds or so, about 60 (0.1%) were called active. Roughly 3% stayed inconclusive and do not appear here. The call rests on the fitted dose curve; in most records, active means well fitted inhibition curve with a large enough effect; inconclusive means small, poorly fitted or top-dose-only effect; inactive means no such curve, though single readings can be large or run the other way. The list shows a part of the results.

assay: Primary qHTS assay for Inhibitors of ovarian cancer metastasis using an organotypic tumor microenvironment (TME) model.; further: nearly all actives have a fitted effect of over 65% in size;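 on activity change, negative = inhibition: plate controls were DMSO wells for no effect and tomatine positive control wells for full effect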; conditions: SKOV3ip1-GFP adhesion/invasion on 3D omental model, fluorescence; series mostly up to 45.8 µM; activity change, negative = inhibition: at the top concentration
Method in brief: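 qHTS, 4-pt dose (0.36-46 umol/L); SKOV3ip1-GFP, 1,200 cells/well, no FBS; primary omental fibroblast/mesothelial co-culture 48 h pre-grown; 2 h RT + 16 h 37 C; PBS wash, 4% PFA; GFP count 488/509 nm.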

Activity change, negative = inhibition, inactive:
CCc1ccc(NC(=O)C2CCCN(S(=O)(=O)c3c(C)noc3/C=C/N(C)C)C2)cc1 (stereo unspecified) -1.7%
CCOc1ccccc1-c1nc(SCC(=O)c2ccc(OC)c(Br)c2)n[nH]1 -0.725%
CCN1CCN(C(=O)c2ccc3c(c2)N(Cc2ccccc2F)C(=O)c2ccccc2S3=O)CC1 (stereo unspecified) 3.89%
Cc1ccc(-n2c3c(cc(C(=O)Nc4cccc(Cl)c4)c2=O)C(=O)CC(C)(C)C3)cc1 10.4%
Cc1cc2c(cc3c(SCC(=O)Nc4cccc(Cl)c4C)nnc(C)n32)o1 -4.64%
CCc1ccc(C(=O)NC(Cc2c[nH]c3ccccc23)C(=O)OCC(=O)c2ccc(Br)cc2)cc1 (stereo unspecified) -9.64%
CCOC(=O)c1cnc2ccccc2c1Nc1cccc(OC)c1 6.98%
O=c1c2sccc2n(Cc2cc(=O)n3ccccc3n2)c(=O)n1-c1cccc(C(F)(F)F)c1 -3.56%
Cc1ccc2oc(-c3cccc(NC(=O)c4sc5c([N+](=O)[O-])cccc5c4Cl)c3)nc2c1 1.74%
CCOc1ccc(CCNC(=O)c2c(C)oc3ncn(C)c(=O)c23)cc1 6.57%
O=C(COc1ccc(F)cc1)NCCc1nc2ccccc2[nH]1 3.19%
COc1ccc(/C=C/C(=O)Nc2ccc(Cl)c(Cl)c2)cc1 -14.6%
Cc1cc(-c2ccc(C)c(S(=O)(=O)Nc3cccc(C#N)c3)c2)on1 2.51%
CCOC(=O)c1cc(-c2ccccc2)n(CCC(=O)Nc2nc3c(C)cccc3s2)c1C 6.37%
Cc1ccccc1NS(=O)(=O)c1ccc2[nH]c3c(c2c1)CCCCC3 13%
CC(C)CCOc1ccccc1Cn1c(=O)sc2ccccc21 -2.8%
Cc1ccc(-c2cc3c(N4CCN(c5cc(C)ccc5C)CC4)nccn3n2)cc1 -1.41%
Cn1c(=O)c2sccc2n2c(CCCC(=O)Nc3ccc(Oc4ccc(Cl)cc4)cc3)nnc12 -1.14%
Clc1ccc(C2(c3ccc(-c4cn[nH]c4)cc3)CCNCC2)cc1 -12.8%
CCOc1ccccc1CNC(=O)CCn1ccc2cc(S(=O)(=O)N3CCCCC3)ccc21 2.1%
CCOC(=O)c1ccc(NC(=O)COc2cccc3c(=O)n(C)ccc23)cc1 -3.3%
O=S(=O)(c1ccc(F)cc1)N(Cc1nc(-c2ccccc2)no1)C1CCCCC1 -7.49%
COc1ccc(NC(=O)CN2CCN(CC(=O)Nc3ccccc3F)CC2)cc1OC 7.76%
COc1ccccc1CNC(=O)CSCc1nc(-c2ccc(OC)c(OC)c2)oc1C 3.23%
CCOc1ccc(NC(=O)c2sc3nc4c(cc3c2N)CN(Cc2ccccc2)CC4)cc1 3.97%
Cc1ccc(-n2nc(C(=O)Nc3ccc(Br)cc3C)c(=O)n(C)c2=O)cc1 4.8%
CCOc1ccc(NC(=O)N2CCC(c3ccc(C)cc3)C2)cc1 (stereo unspecified) -4.08%
O=C(COc1ccc(F)cc1)Nc1ccc(C(=O)OCc2cc(=O)n3nc(C4CC4)sc3n2)cc1 -13.6%
COc1ccccc1CNC(=O)C1CCN(S(=O)(=O)c2ccc3[nH]c(=O)ccc3c2)CC1 9.2%
COc1ccc(OC)c(NC(=O)CCn2cccn2)c1 19.5%
CCOc1ccc(NC(=O)Cn2nc(SC)c(S(=O)(=O)c3ccccc3)c2N)cc1 -3.7%
COc1cc(OC)c(NC(=O)Cn2c(SCc3ccccc3F)nc3cccnc32)cc1Cl 6.4%
Cc1ccccc1Cn1nc(C)c(NC(=O)c2cc(CC(C)C)on2)c1C -0.939%
CCc1nn(CC(=O)N2CCN(c3cccc(Cl)c3)CC2)c(=O)c2cc3sccc3n12 -5.55%
Cc1cc(C)nc(NS(=O)(=O)c2ccc(NC(=O)c3nc(SC(C)C)ncc3Cl)cc2)n1 0.451%
Cc1c(Cl)cccc1-n1ncc(C(=O)N2CCC(C)CC2)c1C1CCN(C(=O)OC(C)(C)C)CC1 22.2%
COC1CCC(C(=O)c2ccc3nc4c(cc3c2)CCCO4)CC1 (stereo unspecified) -10.1%
Cc1ccc(NC(=O)C2CCN(S(=O)(=O)c3ccc4c(c3)CCCN4C(=O)C3CCC3)CC2)cc1 1.27%
Cc1oc(-c2ccc(C(=O)NCc3ccccc3F)cc2)nc1COc1ccccc1 1.41%
CC(=O)c1ccc(N2CCN(C(=O)c3cc4c(s3)-c3ccccc3OC4)CC2)cc1 6.84%
CCN(CC)c1ccc(NC(=O)CN2CCN(S(=O)(=O)c3cc(Cl)ccc3OC)CC2)cc1 11.4%
CN(C(=O)C1CCN(c2ncnc3c2nc2n3CCCCC2)CC1)c1ccccc1F 12%
COc1ccc(NC(=O)CSc2nc(-c3ccccc3)[nH]c2-c2ccccc2)cc1OC 5.79%
Cn1cc(C(=O)Nc2ccc(C#N)cc2)c2ccccc2c1=O -3.7%
COc1ccc(CCn2c(=O)c3cccnc3n(CC(=O)Nc3ccc(C)cc3C)c2=O)cc1OC -4.48%
Cc1nc(-c2ccc(S(=O)(=O)N(Cc3ccccc3)C(C)C)cc2)co1 -4.18%
O=C(Nc1cccc(C(=O)OCc2cc(=O)n3c4c(sc3n2)CCCC4)c1)c1cccc(Cl)c1 8.03%
O=C(CSc1nc2c([nH]c3ccccc32)c(=O)n1-c1ccc(F)cc1)NCc1ccc(F)cc1 17.8%
CC(NC(=O)C1CCN(S(=O)(=O)c2ccc3c(c2)oc(=O)n3C)CC1)c1ccccc1 (stereo unspecified) -7.38%
CCOC(=O)c1c(C)oc2ncnc(N3CCN(c4ccccc4)CC3)c12 -4.86%
Cc1ccc(C)c(N2CCN(c3nc4ccc(Cl)cc4n4cnnc34)CC2)c1 -15%
COc1cccc(-c2nc(SCc3ccc(C)cc3)n3[nH]c(=O)cc3n2)c1 4.78%
CC(C)(C)OC(=O)N1CCC(c2c(C(=O)N3CCC(c4ccccc4)C3)cnn2-c2ccc(Cl)cc2)CC1 (stereo unspecified) -0.999%
Cc1ccc(S(=O)(=O)NCCc2csc3nc(-c4ccccc4F)nn23)cc1C 1.32%
CN(C(=O)c1c2c(nc3ccccc13)C(=O)N(C1CCCCC1)C2)c1ccc(F)cc1 -5.41%
Cc1ccc(-c2cc3c(n2-c2ccc(F)cc2)CC(C)(C)CC3=O)cc1 4.08%
COc1ccccc1-c1nc(S(=O)(=O)c2ccccc2)c(N2CCC(C)CC2)o1 5.72%
Cc1ccccc1OCc1nnc(SCc2cc(=O)c3ccc(C)c(C)c3[nH]2)n1C -1.26%
COc1ccc(Nc2nc3ccccc3nc2NS(=O)(=O)c2ccc(Cl)cc2)cc1OC -20.9%
O=S(=O)(Nc1cccc(F)c1)c1ccc2[nH]c3c(c2c1)CCCCC3 -16.3%
CC(=O)Nc1ccc(NC(=O)c2cnn(-c3ccccc3)c2C2CCN(C(=O)OC(C)(C)C)CC2)cc1 7.38%
CCC(C(=O)NCc1cccc(Br)c1)n1nc(C)c2c(C)n(-c3ccccc3)nc2c1=O (stereo unspecified) -0.872%
CCOC(=O)c1cccc(NC(=O)CSc2nc3cc4ccccc4cc3[nH]2)c1 9.19%
CCC(=O)N1CCc2cc(CNC(=O)c3ccc(C#N)cc3)ccc21 -3.8%
CC(NC(=O)c1cc2ccccc2o1)c1ccccc1 (stereo unspecified) 15.3%
NC(=O)C1CCCc2c1[nH]c1ccc(Cl)cc21 (stereo unspecified) -16.8%
CCc1ccc(S(=O)(=O)c2cn(C)c3cc(F)c(F)cc3c2=O)cc1 -4.83%
Cc1ccc(NC(=O)Cn2c(-c3nonc3N)nc3ccccc32)cc1C 1.01%
COc1ccc(-c2nc3sc(CCNC(=O)C(=O)Nc4ccc(C)c(F)c4)c(C)n3n2)cc1 -5.28%
CCCn1nc(NC(=O)c2cccc(Cl)c2)c2cc3cccc(C)c3nc21 -28.9%
CCOC(=O)c1c(C)[nH]c(C)c1S(=O)(=O)N1CCCC(C(=O)Nc2cccc(C)n2)C1 (stereo unspecified) 11.5%
CCOc1ccc(NC(=O)CSC2=Nc3ccccc3C3=NC(Cc4ccccc4)C(=O)N23)cc1 (stereo unspecified) 3.2%

outcome, inactive:
COc1ccccc1N1CCN(C(=O)c2cnc(N3CCCCC3)c3ccccc23)CC1
Cc1cnc(=O)[nH]c1SCC(=O)Nc1nc2ccccc2s1
Cc1ccc(Cl)cc1N1CCN(C(=O)c2ccc3nc(N4CCC(C)CC4)sc3c2)CC1
CC(=O)N1c2c(cc(Br)cc2S(=O)(=O)N2CCN(c3ccccc3)CC2)CC1C (stereo unspecified)
CCc1ccc(-n2c(=O)c3c(C)c(C(=O)N(C)C)sc3n(Cc3ccccc3F)c2=O)cc1
Cc1oc(-c2ccccc2Cl)nc1CS(=O)CC(=O)NCc1ccccc1Cl (stereo unspecified)
COC(=O)c1ccc(NC(=O)C(=O)NCCc2csc(-c3ccc(C(F)(F)F)cc3)n2)cc1
Cc1cc(Cl)ccc1OCC(=O)N1CCC(c2nc3ccccc3o2)CC1
Cc1ccc(Cn2ccnc2SCC(=O)Nc2ccccc2C(F)(F)F)cc1
CCCn1c2ccccc2c2cnn(CC(=O)NCc3ccc(OC)cc3)c(=O)c21
O=C1CC(c2cccc(Cl)c2Cl)c2cc3c(cc2N1)OCCO3 (stereo unspecified)
CC(C)C(NS(=O)(=O)c1ccc2c(c1)oc(=O)n2C)C(=O)NCc1ccccc1 (stereo unspecified)
Cn1cnc2c(=O)oc3ccc(S(=O)(=O)N4CCN(c5ccccc5F)CC4)cc3c21
Cc1ccc(Cl)cc1NC(=O)C1CCN(C(=O)c2cnn(-c3ccccc3)c2-n2cccc2)CC1
CC(C)OCCCNC(=O)CCCn1c(SCC(N)=O)nc2c(sc3ccccc32)c1=O
CCOc1ccc(CCNC(=O)c2ccc3c(c2)nc2n3CCOC2)cc1OCC
O=[N+]([O-])c1ccc(S(=O)(=O)N2CCn3cccc3C2c2ccccc2F)cc1 (stereo unspecified)
COC(=O)c1c(SCC(=O)Nc2cccc(Cl)c2C)[nH]c2ccccc2c1=O
COc1ccccc1CCNC(=O)C(=O)NCC(c1ccco1)S(=O)(=O)c1ccccc1 (stereo unspecified)
COc1ccccc1-c1cc(C(=O)NCCc2ccccc2)no1
CC(C)c1cnc2c(c1SCC(=O)O)c(=O)n(C)c(=O)n2C
O=C(CNC(=O)c1ccccc1F)OCc1cc(=O)n2nc(C3CC3)sc2n1
COc1cc(OC)cc(C(=O)Nc2ccc3c(c2)OCCO3)c1
COc1ccccc1CN1CCN(C2CCN(C(=O)Nc3ccccc3)CC2)C(=O)C1=O
